The supplement of paper PMC3334620
The full ranking holds about 33,000 sequences; the median of “E-score (-0.5 to 0.5)” is about -0.054, and the highest 2% start at about 0.35. Some of the results follow.

Each sequence was assayed against T1, Stb5 (UniProt P38699) (assay: PBM E-score (8-mer binding enrichment) (E-score (-0.5 to 0.5)); higher = stronger / more preferred TF binding; most listed sequences are background and not binding sites). Settings: protein concentration: 200 nM; construct: GST-full length.
T1 sequence: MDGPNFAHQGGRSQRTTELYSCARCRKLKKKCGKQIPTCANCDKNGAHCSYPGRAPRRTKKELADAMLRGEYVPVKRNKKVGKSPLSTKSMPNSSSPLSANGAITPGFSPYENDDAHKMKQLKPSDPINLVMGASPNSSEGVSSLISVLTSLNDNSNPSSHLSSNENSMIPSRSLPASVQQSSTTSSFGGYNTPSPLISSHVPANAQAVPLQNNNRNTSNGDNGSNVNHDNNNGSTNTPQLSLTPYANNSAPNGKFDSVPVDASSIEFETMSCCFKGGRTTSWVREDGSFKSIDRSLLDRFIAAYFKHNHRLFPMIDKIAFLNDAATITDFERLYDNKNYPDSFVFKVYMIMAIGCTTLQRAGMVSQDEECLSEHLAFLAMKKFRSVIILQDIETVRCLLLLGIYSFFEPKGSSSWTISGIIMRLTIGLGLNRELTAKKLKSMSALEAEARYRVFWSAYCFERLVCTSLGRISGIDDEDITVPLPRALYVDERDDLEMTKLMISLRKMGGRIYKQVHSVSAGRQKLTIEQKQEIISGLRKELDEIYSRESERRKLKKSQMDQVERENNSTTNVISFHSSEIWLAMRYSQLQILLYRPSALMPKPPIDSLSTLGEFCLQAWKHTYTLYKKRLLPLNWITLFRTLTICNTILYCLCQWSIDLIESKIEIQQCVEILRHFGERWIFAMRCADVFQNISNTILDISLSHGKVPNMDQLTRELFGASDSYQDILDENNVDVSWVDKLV
Method in brief: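 E-scores (a modified Wilcoxon-Mann-Whitney statistic) were assigned by the Universal PBM Analysis Suite to every ungapped eight-base word pooled with its reverse complement. The input came from universal all-10-mer Agilent arrays made double-stranded by primer extension and probed with GST-tagged yeast transcription factors at about 100-200 nM. Fluorescent anti-GST detected bound protein, and masliner normalised the scans.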

Sequence	PBM E-score
TCATCACA	-0.313
GAAGATTA	0.0338
AACGAATT	-0.088
TAGGTGCA	-0.342
ACACAGCT	-0.0993
CCAACAAA	-0.0678
ACAGGAAG	-0.217
GAAGAACA	-0.0778
AAACCTAA	0.0896
CGACGGCG	0.328
CGCCAATA	0.0277
ACTTACCT	-0.0336
AATGCCTA	-0.0895
GAAGTAAA	-0.0343
AGTGAGAC	-0.111
TCATGGGA	-0.273
CTAGGCGC	-0.0874
CTATACCA	-0.0493
CGAGTCAG	-0.0693
AACTTGAT	-0.0772
GGACGTAC	0.0333
AGTAGTAT	-0.174
ACAGCAGC	-0.164
CACTCCAG	-0.215
CAGCTGAG	-0.231

Sequence	PBM E-score
CTAGTCGA	-0.0352
ACCAGACA	-0.0752
GACCATGA	-0.00839
CTGAACCA	-0.25
TGAATCCA	-0.18
GTCCAAAA	0.163
AATCGTGC	-0.0497
CAACGAGC	-0.172
AACGACAT	0.0144
AAAAAGTC	0.175
TGCAGACA	-0.164
AAGGCTGC	-0.163
CTTTCAGA	-0.124
GGCCTCAC	-0.0859
AAACTGTG	-0.215
GATGACAA	-0.0705
AGGCGCTC	-0.0484
TAACTCAA	-0.142
CCTTGCAG	-0.122
GCGAACAC	-0.109
ATCTGCTG	-0.241
ATATGCGA	0.113
CCAGGGGC	-0.0801
CTCCCCCA	-0.0446
CTCACCTC	-0.37

Sequence	PBM E-score
CCTCGGGC	0.162
CGCGAGTA	0.122
CCACATTA	-0.0924
ACGGAGGA	0.125
AACGACGG	0.242
CATTGTGA	-0.0411
ACTGACTC	-0.0316
GATCCATA	0.0949
GAACGCCA	-0.183
ACCCGGTA	0.198
TGCTTGAA	-0.188
CAAGTGAC	-0.13
CTGAGGTC	-0.297
CTGGGTTA	-0.204
GAGGTTCC	-0.0824
CCTCTTGC	-0.00087
AAAGCTAT	-0.0265
AATGCACC	0.11
CATAGAGC	-0.14
CTGGAAGC	-0.3
AATTAACC	0.305
ATACGACA	-0.228
ATAAGAAT	-0.0685
AAAGGCCA	-0.146
AGCAACGC	0.103

Sequence	PBM E-score
ACATTACA	-0.0794
ACCAGTAA	0.0498
GCGTACCA	-0.102
AGTGGCGC	0.07
GGCAGACC	-0.0351
GAGTCGGC	0.245
AGGGTGTG	-0.307
ACCTTCGT	-0.176
CTCTTTCA	-0.173
CGTCAGAA	-0.0428
CTCCATGC	-0.296
AATCCGCC	0.192
AAATGCTT	-0.122
CCGATCGG	0.413
ACGGATGA	-0.148
TCAGCACA	-0.247
ATCCAGAT	8e-05
ACGTTAGT	-0.107
CCCCTTCA	-0.234
GGCTAGGA	-0.328
GTTCGGAA	0.221
CAATCTGA	-0.151
CTTTGTCC	0.0835
CAGCTCAC	-0.19
ACCCCGCC	0.463

Sequence	PBM E-score
ACCAACAG	-0.0399
CCCGCCCA	0.258
AACCTGGT	-0.135
ACTAGCCT	-0.105
ACCAGGAA	0.00633
ACACCCCT	-0.0768
ACTAAGTG	-0.14
TCTTGACA	-0.157
CGGTCTAA	0.23
CGGGCGTA	0.336
GAGGAGCA	-0.244
ATCGTTTC	-0.125
CCAGAACA	-0.196
AAAACTAG	0.0889
GCAAAGCC	-0.0499
CATTATCC	0.165
CACGGTAC	0.258
GCGTTCTA	0.019
AAAGATGG	-0.106
GAAGTATA	0.0151
GAGCATGA	-0.196
CCTGCACC	-0.0601
CAGATCCG	0.144
AAATAGCC	0.165
CACAACTG	-0.316

Sequence	PBM E-score
GGCAGCAC	-0.124
CTTGGAAC	-0.0483
CGATGTTC	-0.0586
GGTCCGGA	0.391
GAACAAGA	-0.0829
GCGGCGCA	0.19
ATTGGTGC	0.0845
CTATACAA	-0.162
TAATAATA	0.0873
CGGAGCGC	0.164
GTTCTGAA	-0.273
CAGCACCA	-0.196
TAGGCTCA	-0.198
AATTGTGC	-0.0245
CGGCCGCC	0.178
CCTATCGA	-0.243
CTCCCACC	-0.126
GAGGCCGA	0.244
CGTCAGGC	0.0486
GATGCCAA	-0.114
CCACGACG	0.00871
CGTGCTCA	-0.0212
TAATAGGA	0.0539
GCGTACGA	-0.0889
CGTCTAGA	-0.0355

Sequence	PBM E-score
ACTTTATG	-0.0536
GGCCGGCA	0.289
TGACCACA	-0.365
CGATAGAG	-0.0108
CGCACTCA	0.055
ATTCCAAA	-0.284
AAACATAG	-0.191
ACTTCTAG	0.0518
CCATTGTC	-0.0474
AAGTGCGG	0.217
ACAATAGA	-0.112
ACATGTTC	-0.0736
GCCAGTAA	-0.0797
ATTGGGGG	-0.221
AGCCGTAG	-0.0748
ATTCGCCG	0.248
CGACACCA	0.0464
CGCGTAAG	0.0432
GTAGCGAA	-0.207
CAATTATC	0.215
CAGCGCCA	0.116
TCTTTAAA	-0.0495
